# Data: PMC4336329 (PLoS ONE, 2015)
# The campaign covered roughly 310,000 compounds. About 14,000 (4.5%) showed an effect of 50% or more. The effect is printed as a negative number. This is one part of the list.
# Target: human ether-à-go-go-related gene (hERG) potassium channel (human, UniProt Q12809)
# Experiment: primary screen, population patch clamp on CHO cells stably expressing hERG
# 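Note: peak tail current of the secondary pulse compared with the same well before compound.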
# Chain of human ether-à-go-go-related gene (hERG) potassium channel (Q12809 whole entry, looked up): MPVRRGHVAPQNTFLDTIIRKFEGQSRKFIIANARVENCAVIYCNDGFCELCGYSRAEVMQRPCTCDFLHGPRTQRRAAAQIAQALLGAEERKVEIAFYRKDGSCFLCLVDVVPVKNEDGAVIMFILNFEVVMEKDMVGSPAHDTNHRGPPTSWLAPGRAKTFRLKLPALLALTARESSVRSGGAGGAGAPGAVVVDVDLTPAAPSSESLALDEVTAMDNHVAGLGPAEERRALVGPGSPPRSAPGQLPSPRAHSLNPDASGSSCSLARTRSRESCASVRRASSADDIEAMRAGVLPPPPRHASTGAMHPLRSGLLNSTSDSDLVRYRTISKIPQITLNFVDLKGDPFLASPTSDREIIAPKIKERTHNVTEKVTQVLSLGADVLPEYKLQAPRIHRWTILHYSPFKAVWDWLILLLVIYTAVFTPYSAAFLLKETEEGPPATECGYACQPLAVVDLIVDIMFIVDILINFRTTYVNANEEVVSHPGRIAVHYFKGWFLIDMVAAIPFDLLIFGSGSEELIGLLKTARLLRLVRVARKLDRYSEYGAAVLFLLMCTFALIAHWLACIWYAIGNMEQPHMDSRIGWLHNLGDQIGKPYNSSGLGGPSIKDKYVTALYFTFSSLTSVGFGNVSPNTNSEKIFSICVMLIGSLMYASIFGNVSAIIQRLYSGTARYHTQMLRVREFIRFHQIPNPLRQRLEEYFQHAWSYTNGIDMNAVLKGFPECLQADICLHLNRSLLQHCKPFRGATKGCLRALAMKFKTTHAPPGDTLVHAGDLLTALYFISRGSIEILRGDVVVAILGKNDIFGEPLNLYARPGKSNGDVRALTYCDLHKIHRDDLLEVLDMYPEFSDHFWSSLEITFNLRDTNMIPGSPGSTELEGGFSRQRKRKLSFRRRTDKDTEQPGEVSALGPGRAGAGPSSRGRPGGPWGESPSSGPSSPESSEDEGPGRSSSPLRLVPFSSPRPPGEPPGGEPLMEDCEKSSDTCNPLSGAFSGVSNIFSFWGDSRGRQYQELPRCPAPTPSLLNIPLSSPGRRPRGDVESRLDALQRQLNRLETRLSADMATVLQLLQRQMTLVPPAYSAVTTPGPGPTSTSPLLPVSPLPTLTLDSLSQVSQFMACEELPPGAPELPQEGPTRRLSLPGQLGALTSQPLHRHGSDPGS
row,SMILES,"hERG current change (%, negative = inhibition) at 10uM [%]"
1,CC(C)(C)OC(=O)N1CCN(C(=O)c2[nH]cnc2C(=O)NCc2ccccc2)CC1,-5.89
2,COCCCn1c(SCC(=O)N2CCOCC2)nnc1-c1ccco1,18.7
3,O=C(NCc1ccc(F)cc1)c1ccncc1,13.7
4,COc1ccc(OC)c(NC(=O)C2CCN(S(C)(=O)=O)CC2)c1,17.7
5,O=C(COc1ccccc1)N1CCN(c2ccccc2)CC1,-3.1
6,COc1nc(Nc2cccc([N+](=O)[O-])c2)nc(OC)n1,4.39
7,Cc1ccc(C(=O)N/C(=C\c2ccc(-c3cc(Cl)ccc3Cl)o2)C(=O)NCc2cccnc2)cc1,2.81
8,O=C(Nc1ccccc1)N(CCCN1CCOCC1)Cc1ccccc1F,-20.6
9,CC(=O)Nc1ccc(NC(=O)CCC(=O)OCC(=O)c2ccc(C)c([N+](=O)[O-])c2)cc1,18.7
10,Cc1cccc(-n2nnnc2SC(C)C(=O)NCCC2=CCCCC2)c1 (stereo not shown),-19.4
11,O=C1C(=O)N(CCN2CCOCC2)C(c2ccccn2)/C1=C(/O)c1ccc(F)cc1 (stereo not shown),-3.48
12,Cc1cc(C)c(S(=O)(=O)c2cccc(Cl)c2)c(=O)[nH]1,8.07
13,CC1CCCCC12NC(=S)N(c1ccccc1)N2 (stereo not shown),6.81
14,Cc1nc2ccccc2c2oc(C(=O)N3CCC(N4CCCCC4)CC3)cc12,-38.8
15,COc1ccc(N(CC(C)C)S(=O)(=O)c2nnc(NC(=O)CC(C)C)s2)cc1,23.5
16,CCCn1c(C)nnc1SCC(=O)NC1CCCCC1,-2.31
17,Cc1cc(=O)oc2cc(NC(=O)Cc3ccccc3[N+](=O)[O-])ccc12,10
18,Cc1ccc(C(=O)C2=C(O)C(=O)N(c3ncccn3)C2c2ccccc2F)o1 (stereo not shown),29
19,Cc1ccc(-c2nnn(CC(=O)N(Cc3ccccc3)C(C(=O)NC3CCCC3)c3ccncc3)n2)o1 (stereo not shown),-24.3
20,O=C(Nc1ccc2[nH]c(=O)[nH]c2c1)c1cc(F)c(F)cc1Cl,20.4
21,COCCCNc1nc2c(-c3cccc(C)c3)nnn2c2ccc(Cl)cc12,11.3
22,COc1cc2c(c(OC)c1)C(=O)OC(C)CCCC(=O)CCCCC2 (stereo not shown),19.7
23,CCOC(=O)c1c(C)[nH]c(N=Nc2ccc(OC)cc2)c1C,-0.496

row,SMILES,"hERG current change (%, negative = inhibition) at 10uM [%]"
1,CCCCC(CC)CNC(=O)CCS(=O)(=O)c1cccc2nsnc12 (stereo not shown),-11.8
2,Cl.c1csc(CNc2ccc3c(c2)OCCO3)c1,-2.03
3,CSCCC(NC(=O)c1ccccc1Br)C(=O)NNC(=O)c1csc(N2CCOCC2)n1 (stereo not shown),-33.5
4,CC1OC(OC2C(CO)OC(OC3C(CO)OC(O)C(O)C3O)C(O)C2O)C(O)C(O)C1N[C@@H]1C=C(CO)[C@@H](O)C(O)[C@H]1O (stereo partly shown),22.8
5,COC(=O)c1cc(NS(=O)(=O)c2ccc(F)cc2)ccc1N1CCOCC1,10.2
6,Cc1nccc(-c2cc(-c3ccc(Cl)cc3Cl)no2)n1,4.77
7,Cc1cccc(NC(=O)[C@@H]2CCCN2C(=O)OC(C)(C)C)c1,12.3
8,O=S(=O)(Nc1ccc2c(c1)nc1n2CCOC1)c1ccc(Cl)cc1,-22.7
9,Cc1cc(C)cc(NC(=O)CSc2nnc(Cc3cccn3C)n2-c2ccc(F)cc2)c1,-3.46
10,Cc1cc(C)n(-c2ccc(C(=O)Nc3sccc3C(N)=O)cc2)n1,-31.1
11,O=c1cnnc(SCCc2ccccc2)[nH]1,-5.69
12,Cc1cc(C(F)F)n2nc(C(=O)Nc3ccc(S(=O)(=O)N4CCCCCC4)cc3)nc2n1,-4.72
13,COc1ccccc1NC(=O)OC(C)c1ccc(Cl)cc1 (stereo not shown),-2.08
14,Cc1ccc(-n2c(C)cc(C(=O)COC(=O)c3c(C)noc3C)c2C)cc1,-13.2
15,Cc1cccc(NC(=O)C2C3C=CC(O3)C2C(=O)O)c1 (stereo not shown),10.8
16,CCN(CC)C(=O)C1=C(C)Nc2ncnn2C1c1cccnc1 (stereo not shown),-0.306
17,COc1ccc(C)cc1Nc1nnc(C)c(=O)[nH]1,15.4
18,O=C(Nc1ccc(S(=O)(=O)Nc2ccccc2F)cc1)N1CCCCC1,4.84
19,CCc1ccc(NC(=O)Nc2ccon2)cc1,7.75
20,O=C(NC1CCCCCC1)c1ccc(=O)n(Cc2ccccc2)n1,-7.88
21,Cc1cccc(C)c1NC(=S)N1CCOCC1,9.99
22,CSc1ccccc1C(=O)NCCOc1cccc(C)c1,17.7
23,Fc1cccc(Nc2ncnc3sccc23)c1,12

row,SMILES,"hERG current change (%, negative = inhibition) at 10uM [%]"
1,Cn1c(CCN2CCCCCC2)nc2cc(NC(=O)Nc3ccccc3)ccc21,-35.7
2,Cc1cc(C)c(C(=O)CN2CCOCC2)c(C)c1.Cl,5.49
3,NS(=O)(=O)c1ccc(NC(=O)C2C3C=CC(C3)C2C(=O)O)cc1 (stereo not shown),18.3
4,O=P(O)(CCc1ccccc1)CN1CCCCC1,10.9
5,O=C(c1cccc(S(=O)(=O)N2CCCC2)c1)N(Cc1ccco1)C1CCS(=O)(=O)C1 (stereo not shown),-21.8
6,COCCN(CCOC)C(=O)c1ccc(NS(=O)(=O)c2ccc3[nH]c(=O)[nH]c3c2)cc1,36.3
7,CC1COc2ccccc2N1C(=O)c1ccccc1Cl (stereo not shown),-3.55
8,CCCCCCC(=O)c1c([O-])n(-c2ccc(OC)cc2)c(=O)[nH]c1=O.C[NH+](C)C,3.22
9,O=C(CCC(=O)N1CCCCC1)Nc1ccc(Cl)c(Cl)c1,0.606
10,COc1ccccc1OCc1nc2ccccc2s1,0.459
11,Cc1cc(NC(=O)C23CCC(C)(C(=O)O2)C3(C)C)no1 (stereo not shown),12
12,COc1ccc(-c2csc(N(C)C(=O)c3cccs3)n2)cc1,-0.276
13,CCN(CC)c1ccc2cc(C(=O)NCc3ccc(F)cc3)c(=N)oc2c1,-23.4
14,Cc1nnc(SCC(=O)Nc2sc3c(c2C(N)=O)CCC(C)C3)[nH]c1=O (stereo not shown),4.52
15,CN(C)C(=O)N1CCC(C(=O)NCc2ccccc2Cl)CC1,-9.13
16,Cc1nc(Cl)sc1C(=O)O,11.1
17,CCOc1cc(N2CCOCC2)c(OCC)cc1NC(=O)Cc1ccccc1,-12.6
18,CC(=O)O[C@H](CC(=O)O)C[N+](C)(C)C.[Cl-],5.92
19,O=C(c1ccccc1)c1ccc(C(=O)N2CCN(c3ccccc3)CC2)cc1,-36.7
20,CCOc1ccccc1OCCC(=O)N1CCN(S(=O)(=O)c2ccccc2[N+](=O)[O-])CC1,-34.5
21,Cc1ccc(-n2c(=O)[nH]c3c(C(N)=O)nc(CC(C)C)nc32)cc1,4.8
22,Cc1c(Cl)ccc2c(C(=O)O)cc(-c3ccccc3)nc12,-1.96
23,Cc1ccc2cc(C(c3nnnn3C3CCCC3)N(Cc3ccco3)Cc3cccs3)c(=O)[nH]c2c1 (stereo not shown),-2.43

row,SMILES,"hERG current change (%, negative = inhibition) at 10uM [%]"
1,COC(=O)Cc1ccc(NC(=S)NCC(C)C)cc1,3.74
2,COc1ccc(Cl)cc1NC(=S)NNC(=O)C1(C)CC1(Cl)Cl (stereo not shown),9.7
3,O=C(N=C1SC2CS(=O)(=O)CC2N1c1ccc(Cl)cc1Cl)C1CC1 (stereo not shown),-7.48
4,CC(C)C1Cc2ccccc2-c2[nH]c(=S)[nH]c(=O)c21 (stereo not shown),13
5,CCOc1ccc(CN2CCNC(=O)C2CC(=O)NCCC2=CCCCC2)cc1 (stereo not shown),-49.6
6,Cc1ccc(Nc2nc(=O)c3cccnc3s2)c(Br)c1,3.27
7,CC(=O)Nc1ccc(C(=O)NNS(=O)(=O)c2ccc(C)cc2)cc1,21.8
8,Cc1ccc(CNc2ccc3c(c2)ncn3C(C)(C)C)cc1,-72.5
9,CCc1cc2ccccc2nc1SCC(=O)NC1CCCC1,-7.76
10,O=C(c1cc2cc(Br)ccc2oc1=O)N1CCN(c2ccccn2)CC1,-25.4
11,CCOP(C)(=O)C1(C(=O)OCc2ccccc2)CC1 (stereo not shown),22
12,COC(=O)C(C)Sc1nnc(Cc2cc(=O)[nH]c(=O)[nH]2)n1-c1ccc(Cl)cc1 (stereo not shown),1.64
13,CC(C)(C)C(=O)NC(Nc1cccc2cccnc12)C(Cl)(Cl)Cl (stereo not shown),-1.6
14,CCOC(=O)C1CCN(C(=O)c2cccnc2Oc2ccc(Cl)cc2)CC1,-45.2
15,COc1cc(OC)cc(C(=O)OCC(=O)Nc2sccc2C(N)=O)c1,10.8
16,Cc1nc(N)[nH]c(=O)c1CC(=O)OCCCl,-1.14
17,COc1ccc(C2(c3ccc(OC)cc3)NC(=O)N(CC(=O)Nc3ccc(C(=O)N(C)C)cc3)C2=O)cc1,-3.23
18,COc1ccc(-c2c(C#N)c(N)nc3c2CCCCCC3)cc1OC,8.69
19,CSc1nc(NS(=O)(=O)c2cc(Br)ccc2Br)cc(=O)[nH]1,23.3
20,O=C(COC(=O)C1CCN(S(=O)(=O)c2ccc3c(c2)OCCO3)CC1)NC1CCCCC1,-29.1
21,Nc1c(Cl)cc(NC(=O)c2ccccc2C(=O)O)cc1Br,-14.8
22,O=c1[nH][nH]c2nc(C(F)(F)F)cc(C(F)(F)F)c12,-2.36
